From PubChem BioAssay AID588342 (National Center for Advancing Translational Sciences (NCATS), 2011)
“And” between values parts separate entries of the source, which are not always exact repeats. Equal values may be shown once. Screen size: about 360,000 compounds; about 25,000 (6.9%) were called active. The shares of active, inactive and inconclusive entries below differ from those in the screen. Calls come from the whole dose curve; as a rule, active = well fitted inhibition curve with a large enough effect; inconclusive = small, poorly fitted or top-dose-only effect; inactive = flat fitted curve, though single readings scatter. A potency beside an inconclusive call is a rough fit, not a confirmed value.

Target: Luciferin 4-monooxygenase (Photinus pyralis) (UniProt P08659)
Assay: qHTS profiling assay for firefly luciferase inhibitor/activator using purifed enzyme and Km concentrations of substrates (counterscreen for miR-21 project); note: nearly all actives have a fitted effect of over 55% in size;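 for activity change, negative = inhibition: plate controls were vehicle for no effect and reference inhibitor for full effect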
Conditions: purified FLuc, luminescence inhibition; activity change, negative = inhibition: at 57.5 µM (top of the series)
Summary of the method: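 Biochemical qHTS of compounds, final roughly 60 µM downward over six points, against 10 nM purified firefly luciferase using Km concentrations of substrates (10 uM D-luciferin, 10 uM ATP) in Tris acetate pH 7.5 buffer; luminescence output.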
Potency is the fitted concentration of half-maximal effect; tags give direction and shape of the fitted curve.

Sequence of UniProt P08659 (P08659 whole entry, looked up): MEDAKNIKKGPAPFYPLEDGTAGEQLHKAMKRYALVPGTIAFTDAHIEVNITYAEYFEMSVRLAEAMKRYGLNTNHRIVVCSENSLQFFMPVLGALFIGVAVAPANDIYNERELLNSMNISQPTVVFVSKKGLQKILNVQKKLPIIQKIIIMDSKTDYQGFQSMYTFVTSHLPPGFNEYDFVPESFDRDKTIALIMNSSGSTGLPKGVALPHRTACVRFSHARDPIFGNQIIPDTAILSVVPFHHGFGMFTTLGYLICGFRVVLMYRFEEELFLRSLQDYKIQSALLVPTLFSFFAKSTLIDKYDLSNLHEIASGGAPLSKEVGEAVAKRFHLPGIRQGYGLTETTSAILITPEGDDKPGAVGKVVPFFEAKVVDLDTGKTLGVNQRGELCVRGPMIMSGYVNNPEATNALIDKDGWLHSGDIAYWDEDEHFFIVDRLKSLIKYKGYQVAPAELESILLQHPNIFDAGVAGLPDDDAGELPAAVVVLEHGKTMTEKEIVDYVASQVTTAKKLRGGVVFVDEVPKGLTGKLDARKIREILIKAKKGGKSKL

`Cn1c(CCNC(=O)c2ccco2)nc2cc(NC(=O)NC3CCCCC3)ccc21` was tested. Which Potency did it give?
The Potency was inconclusive: 13.5 µM [inhibitor, partial curve].

With `Cc1cccc(Nc2nnc(SCC(=O)Nc3ccccc3[N+](=O)[O-])s2)c1C` as the molecule, how does the Potency read?
The Potency was inconclusive: 30.1 µM [inhibitor, single point].

For `Cc1cccc(N2C(=O)NC3(CCCCC3)C2=O)c1`, which Potency is on record?
The Potency was inconclusive: 33.8 µM [inhibitor, partial curve, poor fit].

For `Cc1cccc(NC(=O)Cn2c(=O)n(Cc3ccc4c(c3)OCO4)c(=O)c3oc4ccccc4c32)c1C`, which “activity change, negative = inhibition” value is on record?
Its value is inactive: 3.85%.

With `N#CC1=C(N)Nc2nc3ccccc3n2C1c1ccc(Cl)cc1` (centres undefined) as the molecule, how does the Potency read?
Its Potency is inconclusive: 26.9 µM [inhibitor, single point].

With `Cc1csc(NC(=O)c2cccc(Cn3nc(C)c(Br)c3C)c2)n1` as the molecule, how does the Potency read?
Its Potency is inconclusive: 21.3 µM [inhibitor, partial curve, poor fit].

`Cc1ccc(CN(C(=O)COc2ccccc2Cl)c2ccccn2)o1` was tested. Which Potency did it give?
The Potency was inconclusive: 26.9 µM [inhibitor, single point].

How did the “activity change, negative = inhibition” value turn out when `COc1ccccc1CN(Cc1nc2ccccc2c(=O)[nH]1)S(=O)(=O)c1ccc2ccccc2c1` was run?
The value was inactive: 0.952%.

How did the Potency turn out when `CCN(Cc1ccncc1)C(=O)c1cc(COc2c(C)cccc2C)on1` was run?
The Potency was inconclusive: 21.3 µM [inhibitor, partial curve, poor fit].

For `CC(=O)c1cccc(NC(=O)c2cnn3ccccc23)c1`, which Potency is on record?
The Potency was active: 12 µM.

`CCOC(=O)c1sc(NC(=S)NC(=O)c2ccco2)nc1C` was tested. Which Potency did it give?
Its Potency is inconclusive: 21.3 µM [inhibitor, partial curve, poor fit].

With `COc1cccc2oc3ccc(C#Cc4ccccn4)cc3c(=O)c12` as the molecule, how does the Potency read?
The Potency was active: 1.07 µM.

How did the Potency turn out when `CCOC(=O)/C(C#N)=C/C=C1\C=Cc2ccccc2N1CC` was run?
Its Potency is inconclusive: 23.9 µM [inhibitor, single point].

Which Potency does the source give for `COC(=O)c1cccc(-c2ccc(C(c3c(C)[nH][nH]c3=O)c3c(C)[nH][nH]c3=O)o2)c1` here?
Its Potency is inconclusive: 26.9 µM [inhibitor, single point].

With `CC(C)(C)Nc1ncnc2sc(-c3ccccc3)cc12` as the molecule, how does the Potency read?
Its Potency is inconclusive: 30.1 µM [inhibitor, partial curve, poor fit].

Which “activity change, negative = inhibition” value does the source give for `Cc1cccc(C)c1OCC(O)CNS(=O)(=O)c1ccccc1C(=O)N1CCCCC1` (centres undefined) here?
Its value is inactive: 2.59%.

How did the Potency turn out when `CCc1ccc(-n2nc3cc(C)c(N)cc3n2)cc1` was run?
The Potency was active: 0.19 µM.

How did the Potency turn out when `Cn1cccc1/C=C1/SC(=S)N(CC(=O)O)C1=O` was run?
The Potency was inconclusive: 23.9 µM [inhibitor, single point].

Which Potency does the source give for `O=C(Cn1ncc2c(Cl)cccc21)NCc1cccc(Cl)c1` here?
The Potency was inconclusive: 33.8 µM [inhibitor, partial curve, poor fit].

Which Potency does the source give for `COc1ccc(/C=N/Nc2nonc2N)cc1OC` here?
The Potency was inconclusive: 23.9 µM [inhibitor, single point].

With `COc1cc(C(=O)Nc2cccc(-c3cn4cccnc4n3)c2)cc(OC)c1OC` as the molecule, how does the Potency read?
Its Potency is inconclusive: 19 µM [inhibitor, partial curve].

`Cc1ccccc1CN1C[C@@H]2C[C@@H](c3cn(C)nc3-c3ccccc3)N3CCC[C@@]23C1=O` was tested. Which Potency did it give?
Its Potency is inconclusive: 37.9 µM [inhibitor, partial curve, poor fit].

`Cc1cc(N2CCCC2)nc(-c2ccccc2O)n1` was tested. Which Potency did it give?
The Potency was inconclusive: 9.53 µM [inhibitor, partial curve, poor fit].

Which Potency does the source give for `COc1ccc(-c2noc(-c3ccc(N4CCOCC4)c([N+](=O)[O-])c3)n2)cc1` here?
The Potency was inconclusive: 12 µM [inhibitor, partial curve].

How did the Potency turn out when `Clc1cccc(Oc2cnc3ccccc3n2)c1` was run?
The Potency was inconclusive: 37.9 µM [inhibitor, partial curve, poor fit].

`COc1ccc(CCN(C)CCC(=O)Nc2cc(C)ccc2C)cc1OC` was tested. Which Potency did it give?
Its Potency is active: 13.5 µM.

How did the Potency turn out when `CCOC(=O)c1nn(-c2ccc(F)cc2)c(=O)c2c(N)scc12` was run?
Its Potency is inconclusive: 26.9 µM [inhibitor, single point].

With `CCc1nnc(NC(=O)c2ccc(Br)o2)s1` as the molecule, how does the Potency read?
The Potency was inconclusive: 26.9 µM [inhibitor, partial curve, poor fit].

With `CC1=C(C(=O)Nc2ccccc2C)C(c2cccs2)n2nc(SCc3ccccc3)nc2N1` (centres undefined) as the molecule, how does the “activity change, negative = inhibition” value read?
The value was inactive: 2.15%.

How did the Potency turn out when `O=C(COc1cccc(Oc2ccccc2)c1)Nc1ncccn1` was run?
Its Potency is inconclusive: 16.9 µM [inhibitor, partial curve].

With `CCc1nnc2c3cnn(-c4ccccc4)c3ncn12` as the molecule, how does the Potency read?
Its Potency is inconclusive: 8.49 µM [inhibitor, partial curve].

For `COc1ccc(NCc2cccn2-c2nnc(N3CCCCCC3)s2)cc1`, which Potency is on record?
Its Potency is inconclusive: 23.9 µM [inhibitor, partial curve, poor fit].

With `Cc1nc(C(=O)N/N=C/c2[nH]ncc2Br)cs1` as the molecule, how does the “activity change, negative = inhibition” value read?
The value was inactive: -14.4%.

How did the Potency turn out when `Cc1ccc(O)c(NC(=O)c2noc(C(C)C)c2[N+](=O)[O-])c1` was run?
The Potency was active: 19 µM.

`CC(C)c1ccc(C(CC(=O)O)NC(=O)c2cccs2)cc1` (centres undefined) was tested. Which “activity change, negative = inhibition” value did it give?
The value was inactive: -7.43%.

For `CC(C)OCCCn1c(=O)c2ccccc2n2c(-c3ccccc3)nnc12`, which “activity change, negative = inhibition” value is on record?
Its value is inactive: 4.32%.

`CCOc1ccc(C(=O)COC(=O)c2cc(=O)[nH]c3ccccc23)cc1` was tested. Which Potency did it give?
Its Potency is active: 1.35 µM.

`COc1ccccc1C(=O)OCc1nc(N)nc(Nc2ccccc2C)n1` was tested. Which Potency did it give?
Its Potency is inconclusive: 26.9 µM [inhibitor, partial curve, poor fit].

How did the Potency turn out when `COc1ccc(/C=N/NC(=S)Nc2ccccc2[N+](=O)[O-])cc1O` was run?
Its Potency is active: 0.426 µM.

How did the Potency turn out when `COc1ccc(NC(=O)CSc2ccc(-c3ccco3)nn2)cc1` was run?
Its Potency is inconclusive: 3.38 µM [inhibitor, partial curve, poor fit].

For `Oc1ccccc1/C=N/NC1=NCCCCC1`, which Potency is on record?
The Potency was active: 13.5 µM.

`Cc1noc(C)c1S(=O)(=O)N1CCCC(C(=O)c2cccc(OC(C)C)c2)C1` (centres undefined) was tested. Which “activity change, negative = inhibition” value did it give?
The value was inactive: 3.95%.

Which Potency does the source give for `CC1CCc2[nH]c3ccc(C(=O)N(C)CC(=O)Nc4ccccc4Cl)cc3c2C1` (centres undefined) here?
Its Potency is inconclusive: 37.9 µM [inhibitor, partial curve, poor fit].

Which Potency does the source give for `O=[N+]([O-])c1cccc(-c2ccc(SCc3ccccn3)nn2)c1` here?
The Potency was active: 26.9 µM.

Which Potency does the source give for `Cc1ccc(SCCSc2nc(C)cc(=O)[nH]2)cc1` here?
The Potency was active: 5.36 µM.

Which Potency does the source give for `COc1ccccc1C(=O)NC1(C(F)(F)F)C(=O)Nc2c1c(=O)[nH]c(=O)n2-c1ccc(F)cc1` (centres undefined) here?
The Potency was inconclusive: 13.5 µM [inhibitor, partial curve, poor fit].

`CC(=O)Nc1ccc(-c2csc(NC(=O)Cc3ccccc3F)n2)cc1` was tested. Which Potency did it give?
The Potency was inconclusive: 21.3 µM [inhibitor, single point].

For `Cc1cc(Cl)ccc1OCC(=O)N(Cc1ccco1)Cc1ccccc1F`, which Potency is on record?
The Potency was inconclusive: 37.9 µM [inhibitor, partial curve, poor fit].

Which Potency does the source give for `CCCN(C(=O)c1ccco1)c1nnc(-c2cccc(C)c2)s1` here?
Its Potency is active: 16.9 µM.

With `Cc1nc(NC(=O)c2ccccc2)sc1-c1csc(Nc2ccc(C(=O)O)cc2)n1` as the molecule, how does the Potency read?
The Potency was active: 0.478 µM.

`O=c1oc(/C=C/c2ccccc2)nc2sc3c(c12)CCC3` was tested. Which Potency did it give?
The Potency was active: 0.953 µM.

`O=C(Nc1ccc(F)cc1)c1ccc2c(=O)n3c(nc2c1)CCCCC3` was tested. Which Potency did it give?
The Potency was active: 23.9 µM and active: 13.5 µM.

For `COc1ccc(OC)c(C2CC(=O)Oc3c2c(=O)n(C)c2ccccc32)c1` (centres undefined), which Potency is on record?
The Potency was inconclusive: 26.9 µM [inhibitor, partial curve, poor fit].

`Cc1cccc(C)c1-n1ncc(C(=O)O)c1C1CCN(C(=O)OC(C)(C)C)CC1` was tested. Which “activity change, negative = inhibition” value did it give?
Its value is inactive: -2.03%.

`NS(=O)(=O)c1ccc(NC(=O)CSc2nnc(-c3ccc(O)cc3)o2)cc1` was tested. Which Potency did it give?
The Potency was inconclusive: 23.9 µM [inhibitor, partial curve].

How did the Potency turn out when `CC(C)(C)CC(=O)NCCc1csc(-c2ccccc2)n1` was run?
Its Potency is inconclusive: 16.9 µM [inhibitor, single point].

How did the Potency turn out when `CNc1ccc(Br)cc(C(=O)/C=C/c2cccc(OC)c2)c1=O` was run?
Its Potency is inconclusive: 23.9 µM [inhibitor, single point].

How did the “activity change, negative = inhibition” value turn out when `CCCNC(=O)c1ccc(N2CCC3(CC2)CC(c2ccccc2)=NO3)c(NC(=O)c2cccc(OC)c2)c1` was run?
Its value is inactive: 0.204%.

With `Cc1oc2ccc(OS(C)(=O)=O)cc2c1C(=O)OC(C)C` as the molecule, how does the Potency read?
The Potency was inconclusive: 37.9 µM [inhibitor, partial curve, poor fit].

`CCCCN(C(=O)C(C)Oc1ccc(Br)cc1)c1c(N)n(CC(C)C)c(=O)[nH]c1=O` (centres undefined) was tested. Which Potency did it give?
Its Potency is inconclusive: 30.1 µM [inhibitor, partial curve, poor fit].

With `Nc1nc(SCc2ccc(Cl)cc2)ns1` as the molecule, how does the Potency read?
Its Potency is inconclusive: 30.1 µM [inhibitor, single point].

How did the Potency turn out when `O=C(N/N=C1\CCS(=O)(=O)c2ccc(F)cc21)c1ccc([N+](=O)[O-])cc1` was run?
Its Potency is inconclusive: 30.1 µM [inhibitor, partial curve, poor fit].

With `Cc1ccc[n+](CC(=O)Nc2cccc(Cl)c2)c1` as the molecule, how does the “activity change, negative = inhibition” value read?
Its value is inactive: 1.91%.

Which Potency does the source give for `Nn1c(SCC(=O)Nc2ccc3c(c2)OCCO3)nncc1=O` here?
The Potency was active: 21.3 µM.

With `C/C(CC(=O)Nc1cc(C)ccn1)=N\NC(=O)c1ccc(C(C)(C)C)cc1` as the molecule, how does the Potency read?
Its Potency is active: 10.7 µM.

For `CNC(=O)CCc1nc(-c2ccc(C(C)(C)C)cc2)no1`, which Potency is on record?
Its Potency is active: 4.78 µM.

How did the Potency turn out when `CC(C)(C)C(=O)OC/C(N)=N/OC(=O)c1ccccc1` was run?
The Potency was inconclusive: 37.9 µM [inhibitor, partial curve, poor fit].

`O=Cc1ccc2c(c1)CCN2Cc1ccccc1` was tested. Which Potency did it give?
The Potency was inconclusive: 37.9 µM [inhibitor, single point].

Which Potency does the source give for `CCOc1ccc(CCNC(=O)c2cn(-c3ccc(OC)cc3)c(=O)c3ccccc23)cc1OCC` here?
The Potency was inconclusive: 8.49 µM [inhibitor, partial curve, poor fit].
